Results: PubChem BioAssay AID493208 (National Center for Advancing Translational Sciences (NCATS), 2011)
In all, about 44,000 compounds went through this assay and about 340 (0.77%) were called active. Not shown: some 5% with an inconclusive outcome. Calls follow the shape of the dose curve; as a rule, active = well fitted inhibition curve with a large enough effect; inconclusive = small, poorly fitted or top-dose-only effect; inactive = flat fitted curve, though single readings scatter. This is one part of the list.

Assay: Acumen qHTS Assay for Inhibitors of the mTORC1 Signaling Pathway in MEF (Tsc2-/-, p53-/-) Cells: Sytravon; also: nearly all actives have a fitted effect of over 50% in size;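 as to activity change, negative = inhibition: plate controls were DMSO for no effect and rapamycin for full effect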
Conditions: phospho-rpS6 immunofluorescence/PI, 24 h; series mostly up to 38.3 µM; activity change, negative = inhibition: at the top concentration
Outline: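 Tsc2-/-, p53-/- MEFs (empty-vector stable line) in DMEM + 10% FBS were treated with compounds 24 h at 37 degree Celsius, fixed, and immunostained for phospho-rpS6 (Alexa-488) with propidium iodide counterstain. Laser-scanning cytometry gave % positive cells, normalized against 7.5 nM rapamycin and DMSO.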
Potency is read from the fitted curve at half-maximal effect.

Activity change, negative = inhibition, inactive:
O=C(COc1ccccc1)Nc1ccc(C(=O)OCc2cc(=O)n3nc(C4CC4)sc3n2)cc1 3.65%
Cc1nc2nc(SCC(=O)NCc3ccccc3)nn2c(C)c1Cc1ccccc1Cl -23.9%
CCN(CC)CCNC(=O)C1CCN(S(=O)(=O)c2c(C)noc2/C=C/c2ccccc2F)CC1 9.85%
Cc1ccc(OCCSc2nc3ccc(NC(=O)COc4ccc(F)cc4)cc3s2)cc1 -7.24%
O=C(Cc1cccs1)NC1CC(=O)N(c2ccccc2)C1 (centres undefined) -3.87%
CCc1cccc(C)c1NC(=O)CN1CCCN(Cc2ccc(C)cc2)S1(=O)=O -16.5%
COc1ccc(-c2c(C)nn3c(C(F)(F)F)cc(-c4ccc(Br)cc4)nc23)cc1 -1.99%
Cc1cc(C)n2c(Nc3c(C)cccc3C)c(-c3ccsc3)nc2n1 4.41%
O=C(CN1CCCN(Cc2ccccc2Cl)S1(=O)=O)Nc1ccc2c(c1)OCCO2 0%
CCOC(=O)c1cc(-c2ccc(F)cc2)n(CC(=O)NC2CCCCC2)c1C -1%
CCOc1ccc(-c2ccc(NS(=O)(=O)c3cc(C)c(C)cc3C)cc2)nn1 -4.21%
Cc1ccccc1CN1CCc2nc(Nc3ccc4c(c3)OCCO4)ncc2C1 0%
CCOc1ccc(CCNC(=O)c2ccc(CS(=O)(=O)Cc3ccccc3Cl)o2)cc1OCC 4.71%
CCN(C(=O)COc1cc(=O)n(C)c2ccccc12)c1cccc(C(F)(F)F)c1 8.03%
CCOc1ccc(C(=O)Nc2ccc(-c3nc4cc(CC)ccc4o3)cc2)cc1 2.15%
CC(NC(=O)CCn1c(=O)c2cccn2c2ccc(F)cc21)c1ccccc1 (centres undefined) -20.7%
O=C(c1cc2c(=O)[nH]c3ccccc3c2s1)N1CCN(c2ccc(F)cc2)CC1 -7.18%
COc1ccccc1NC(=O)Cn1c(=O)n(Cc2ccccc2)c(=O)c2ccccc21 -10.7%
COc1ccc(NC(=O)C(=O)NCCc2csc(-c3ccc(Cl)cc3)n2)cc1 -2.45%
COc1cccc(NC(=O)c2oc3ccccc3c2NC(=O)C23CC4CC(CC(C4)C2)C3)c1 0.0996%
COc1ccc(CN2COc3ccc4c(C)cc(=O)oc4c3C2)cc1 -6.14%
COc1cccc2c1Oc1nc(-c3ccccc3)nc(SCC(=O)N3CCCCC3)c1C2 -0.96%
O=C(CCn1c(=O)c2cccn2c2ccc(F)cc21)NCCc1ccccc1Cl -0.549%
COC(=O)c1ccc(NC(=O)Nc2nnc(N(C)C3CCCCC3)s2)cc1 1.97%
CCCOc1ccc(Nc2nc(SC)ncc2C(=O)OCC)cc1 -10.1%
Cc1coc2c(C)c3oc(=O)c(CC(=O)N4CCCCC4)c(C)c3cc12 -1.76%
Cc1cc(C)cc(-n2c(SCC(=O)Nc3nnc(C)s3)nc3c([nH]c4ccccc43)c2=O)c1 0.4%
COC(=O)c1ccc(NC(=O)Cc2coc3cc(C)ccc23)cc1 -6.24%
COc1ccc(-c2nc3nc(C)cc(Nc4ccc(C(C)=O)cc4)n3n2)cc1 -2.43%
COc1ccc(Cn2ccnc2SCC(=O)NCc2ccccc2)cc1 -8.22%
CCC1CCCCN1C(=O)c1nn(-c2ccc(C)cc2)c(=O)c2c1c1ccccc1n2C (centres undefined) 1.15%
CCOc1ccc(CCNC(=O)c2cnc3sc(N4CCOCC4)nn3c2=O)cc1 2.07%
CCOc1ccc(C2C(=O)N(C3CCCCCC3)CC(=O)N2CCc2ccccc2)cc1OC (centres undefined) 7.74%
COc1ccccc1-c1ccnc2[nH]n(-c3ccccc3)c(=O)c12 -3.68%
CCOc1ccc(C(=O)Nc2ccc(S(=O)(=O)N3CCCCC3c3cccnc3)cc2)cc1 (centres undefined) -14.7%
Cc1cccc(N2CCN(c3nc4ccccc4c(=O)n3-c3ccc(Cl)cc3)CC2)c1C -2.22%
Cc1ccc(N2CCN(C(=O)c3ccc4c(Cl)c5c(nc4c3)CCCC5)CC2)c(C)c1 -11.1%
Cc1noc(C)c1S(=O)(=O)N(CC(=O)NCc1ccccc1Cl)c1ccc(C(C)C)cc1 -32.8%
O=C(Nc1ccc(F)cc1F)c1c2c(nc3ccccc13)C(=O)N(C1CCCCC1)C2 -10.3%
O=C(NCc1cccs1)C1CCN(C(=O)N2CCOc3ccccc32)CC1 -0.203%
O=C(Nc1c(-c2ccccc2)nc2ccccn12)c1ccc(Br)cc1 7.03%
CCOC(=O)c1cc(OC(=O)c2ccc(Cl)cc2)n(-c2ccccc2)n1 -5.04%
Cc1ccc(N(CC(=O)N2CCN(c3ccc(Cl)cc3)CC2)S(=O)(=O)c2c(C)noc2C)cc1 1.52%
COc1ccc(C2C(=O)N(C3CCCCC3)CC(=O)N2Cc2ccccc2Cl)cc1OC (centres undefined) -8.94%
COc1ccc(CN2COc3ccc4c(-c5ccc(OC)cc5)cc(=O)oc4c3C2)cc1 -1.27%
CCc1ccc(-n2nc(C)c3c(C(=O)NCCc4ccc(OC)c(OC)c4)cc(C)nc32)cc1 4.62%
COc1ccc(CNC(=O)Cn2ncn3nc(-c4cccs4)cc3c2=O)cc1 3.49%
Cc1ccc(C)c(N2CCN(CCCNC(=O)Cn3ncc4c([nH]c5ccccc54)c3=O)CC2)c1 -12.7%

Potency, active:
Cc1ccc(C)c(S(=O)(=O)NCC(c2ccco2)S(=O)(=O)c2ccc(F)cc2)c1 (centres undefined) 7.36 µM
